Data on 42 compounds can be found in ChEMBL document CHEMBL4888484, “Replenishing the malaria drug discovery pipeline: Screening and hit evaluation of the MMV Hit Generation Library 1 (HGL1) against asexual blood stage Plasmodium falciparum ,using a nano luciferase reporter read-out” (2022).

The whole screen tested about 150,000 compounds, of which about 540 (0.36%) showed an effect of 50% or more. This is one part of the list.

This assay concerns Plasmodium falciparum. Kind of assay: Primary screen in NF54 nanoGlo assay, in single point, at 2uM, 72h; a lower Z score goes with more inhibition. Type of assay: functional, Erythrocyte. The note with it: timepoint 72 hour.
In general, % Inhibition refers to the relative decrease from the control value, in per cent. In the case of `CCOc1ccncc1S(=O)(=O)N1CCN(Cc2ccncc2)CC1`, the “% Inhibition” value is listed as -2% and the Z score turned out to be 0.25.
Take `Nc1cc2c(cc1N1CCOC1=O)OCO2`: the “% Inhibition” value is listed as -5% and the Z score was found to be 0.82.
With `Cn1cc([C@@H]2CNCCN2C(=O)c2csc3ccccc23)cn1`, the “% Inhibition” value is given as -11% and the Z score is on record as 1.48.
For `O=C1[C@@H]2CCCN2[C@@H](c2ccc(Cl)cc2Cl)N1c1nccs1`, the “% Inhibition” value is reported as -11% and the Z score amounted to 1.87.
Consider `Cc1ccc(S(=O)(=O)NCC2(C)CC(NS(=O)(=O)c3ccc(C)cc3)CC(C)(C)C2)cc1` (centres undefined), for which the “% Inhibition” value is given as -33% and the Z score is given as 3.86.
In the case of `CC(C)Cn1ncc2c1NC(=O)C[C@@H]2c1cccnc1N1CCOCC1`, the “% Inhibition” value was -2% and the Z score was 0.31.
Turning to `CC(=O)c1cccc(N(CC(=O)Nc2ccc(S(=O)(=O)Nc3ccc(Cl)cc3Cl)cc2)S(C)(=O)=O)c1`, the “% Inhibition” value was 3% and the Z score is given as -0.45.
`CCc1nc(C)cc(N2CC[C@H]3[C@H](CCC(=O)N3CCCCO)C2)n1`: the “% Inhibition” value is given as -14% and the Z score came to 1.29.
In the same order, the values of `COc1cccc(C(=O)Nc2cnc(N3CCCC3)nc2N(C)C)c1` are -21% and 2.7.
With `CC1CCC(C(=O)O)C(C)N1Cc1noc2c1CCCC2` (centres undefined), the “% Inhibition” value came out at 1% and the Z score is reported as -0.08.
On to `COc1ccc(OC(C)C)c(NC(=O)CCNCC(F)(F)F)c1`, for which the “% Inhibition” value is reported as -9% and the Z score was 0.87.
With `CCN1CCC(N(C)C(=O)c2ncnc3ccsc23)CC1`, the “% Inhibition” value is on record as -5% and the Z score is 0.83.
With `OCc1csc(N2CCN(Cc3cc(C4CC4)n[nH]3)C[C@H](O)C2)n1`, the “% Inhibition” value is reported as 13% and the Z score is on record as -1.75.
The like results for `Fc1cc(Cl)cc(NCc2csc(-c3ccccn3)n2)c1` were, in that order, -9% and 0.97.
As to `CCCNC(=O)N1CC[C@H](CCOc2ccccc2)C1`, the “% Inhibition” value was -1% and the Z score is 0.16.
As to `O=C(Nc1ccc(-c2cc3cc(F)ccc3[nH]2)cc1)Nc1cccc(F)c1`, the “% Inhibition” value is -2% and the Z score is reported as 0.29.
With `CCC(=O)N1CCN(c2ccc3ccc(F)cc3n2)CC1`, the “% Inhibition” value was -6% and the Z score came to 1.15.
Regarding `COCCOc1ccnc(-c2noc([C@@H]3CCCN3Cc3ncc[nH]3)n2)c1`, the “% Inhibition” value came to 34% and the Z score is -3.87.
`O=C(C[C@@H]1NC(=O)N(CCc2ccccc2)C1=O)Nc1cccc2[nH]ccc12`: the “% Inhibition” value amounted to 4% and the Z score was -0.46.
With `CCCCn1nnnc1CN1C(=O)NC2(CCC(C)CC2)C1=O` (centres undefined), the “% Inhibition” value is -15% and the Z score was determined as 1.27.
As to `C[C@@H](CCC(=O)NCc1cscn1)N1CCOCC1`, the “% Inhibition” value was -3% and the Z score came out at 0.54.
In the case of `O=C(COc1ccccc1)NC[C@@H]1CCCN(C(=O)COc2ccccc2)C1`, the “% Inhibition” value is -6% and the Z score came to 0.76.
On to `Cc1ccc(-c2nc3ccc(-c4cccc(C)c4)cn3c2CN2CCN(C(=O)c3ccco3)CC2)cc1`, for which the “% Inhibition” value was -14% and the Z score amounted to 1.88.
The like results for `Cc1cc(C)n(-c2ccnc(N3CCC4(CC3)OCCO4)n2)n1` were, in that order, -16% and 1.67.
On to `Cc1cc(C)c2nccc(N3CCN(C)[C@@H](CCO)C3)c2c1`, for which the “% Inhibition” value was -7% and the Z score came out at 1.01.
Turning to `Cc1cc(F)c(CC(=O)N[C@@H]2CS(=O)(=O)C[C@H]2O)cc1F`, the “% Inhibition” value is -6% and the Z score is 0.91.
For the compound `CC(C)c1nc(C(=O)Nc2[nH]c(=O)ncc2F)cs1`, the “% Inhibition” value came out at 88% and the Z score is recorded as -15.46.
For `COc1ccc(Cn2nc(C)nc2CCn2cnnn2)cc1`, the “% Inhibition” value is on record as -3% and the Z score turned out to be 0.59.
As to `CC[C@@](C)(CO)NC(=O)Nc1ccc(F)cc1OC(F)F`, the “% Inhibition” value is given as -7% and the Z score came out at 1.19.
As for `CCOCCS(=O)(=O)N1CC2(CCOCC2)[C@@H]1C1CC1`, the “% Inhibition” value is on record as -10% and the Z score is on record as 1.61.
`Cc1cc(C)nc(NS(=O)(=O)c2cc(C)oc2C)n1`: the “% Inhibition” value is on record as -3% and the Z score is listed as 0.35.
The like results for `CCc1ccc(-c2cc(C(F)(F)F)on2)cc1S(=O)(=O)N1CCN(CC)CC1` were, in that order, -9% and 1.48.
The like results for `CCOc1ccc(C(=O)N[C@@H](C)c2c(C)n[nH]c2C)o1` were, in that order, -13% and 1.69.
Take `Cc1ccc(N2CCC[C@@]3(CCC(=O)N(Cc4cccnc4)C3)C2)nn1`: the “% Inhibition” value is listed as -9% and the Z score is 1.24.
For `Cc1cc(C)nc(-c2cc(NCc3cccnc3)nc3[nH]ccc23)n1`, the “% Inhibition” value is on record as -9% and the Z score turned out to be 1.18.
As to `C=CCOc1ccc(CN(C[C@H]2CCCO2)C(=O)c2c(C)noc2C)cc1OC`, the “% Inhibition” value is listed as -6% and the Z score was 0.72.
On to `O=S(=O)(Cc1cccc2nsnc12)N[C@@H]1CCCOC1`, for which the “% Inhibition” value is reported as -5% and the Z score worked out at 1.07.
`CC1=C(C(=O)NCc2cnc3c(c2)CCC3)[C@H](c2cccc(C)c2)NC(=O)N1`: the “% Inhibition” value is reported as -20% and the Z score was 2.66.
For `Cc1noc([C@H]2OCC[C@H]2NC(=O)c2ccccc2C2(C)CC2)n1`, the “% Inhibition” value is given as -4% and the Z score was 0.7.
For the compound `O=C([C@@H]1CCCc2[nH]ncc21)N1CC=C(c2c[nH]c3ccccc23)CC1`, the “% Inhibition” value was -6% and the Z score is 0.75.
With `CN1CC[C@H](CN(C)Cc2ccc3cc(O)ccc3c2)C1`, the “% Inhibition” value turned out to be 56% and the Z score is listed as -7.71.
In the same order, the values of `Cn1cc(CN(Cc2ccccc2OCc2c(F)cccc2Cl)C2CC2)cn1` are -7% and 0.91.
